The supplement of paper PMC8728848
Some of the results follow.

Experiments:
Assay in all cases: glycan array binding signal (z-score within array); higher = stronger binding
Conditions in all cases: glycan notation: IUPAC condensed, linker removed
[1] = biological target: Gal(b1-4)GlcNAc(b1-3)[GlcNAc(b1-6)]Gal(b1-4)GlcNAc
In short: (§1)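 Glycan array data were curated from 3228 arrays in the Consortium for Functional Glycomics database and kept only where the protein sequence was available. Glycan names were converted to IUPAC-condensed notation, and columns mapping to the same glycan were averaged. The binding signal is a within-array Z-score, averaged across arrays of the same protein sequence at different concentrations or buffers and across linkers. Negative Z-scores can be read as non-binding.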

[2] = biological target: Gal(b1-4)GlcNAc(b1-6)Gal(b1-4)GlcNAc
In short: as §1

[3] = biological target: Gal(b1-4)GlcNAc(b1-6)GalNAc
In short: as §1

[4] = biological target: Gal(b1-4)GlcNAc(b1-6)[Gal(b1-3)]GalNAc
In short: as §1

[5] = biological target: Gal(b1-4)GlcNAc6P
In short: as §1

[6] = biological target: Gal(b1-6)Gal
In short: as §1

[7] = biological target: Gal3S(b1-3)GalNAc
In short: as §1

[8] = biological target: Gal3S(b1-3)GlcNAc
In short: as §1

[9] = biological target: Gal3S(b1-3)[Fuc(a1-4)]GlcNAc
In short: as §1

[10] = biological target: Gal3S(b1-4)Glc
In short: as §1

[11] = biological target: Gal3S(b1-4)Glc6S
In short: as §1

[12] = biological target: Gal3S(b1-4)GlcNAc
In short: as §1

[13] = biological target: Gal3S(b1-4)GlcNAc6S
In short: as §1

[14] = biological target: Gal3S(b1-4)[Fuc(a1-3)]Glc
In short: as §1

[15] = biological target: Gal3S(b1-4)[Fuc(a1-3)]Glc6S
In short: as §1

[16] = biological target: Gal3S4S(b1-4)GlcNAc
In short: as §1

[17] = biological target: Gal3S6S(b1-4)GlcNAc
In short: as §1

[18] = biological target: Gal3S6S(b1-4)GlcNAc6S
In short: as §1

[19] = biological target: Gal4S(b1-4)GlcNAc
In short: as §1

[20] = biological target: Gal4S6S(b1-4)GlcNAc
In short: as §1

[21] = biological target: Gal6P(b1-4)GlcNAc
In short: as §1

[22] = biological target: Gal6S(b1-3)GlcNAc
In short: as §1

[23] = biological target: Gal6S(b1-3)GlcNAc6S
In short: as §1

[24] = biological target: Gal6S(b1-4)Glc
In short: as §1

[25] = biological target: Gal6S(b1-4)Glc6S
In short: as §1

[26] = biological target: Gal6S(b1-4)GlcNAc
In short: as §1

[27] = biological target: Gal6S(b1-4)GlcNAc6S
In short: as §1

[28] = biological target: GalNAc(a1-3)Gal
In short: as §1

[29] = biological target: GalNAc(a1-3)GalNAc
In short: as §1

[30] = biological target: GalNAc(a1-3)GalNAc(b1-3)Gal(a1-4)Gal(b1-4)Glc
In short: as §1

[31] = biological target: GalNAc(a1-3)GalNAc(b1-3)Gal(a1-4)Gal(b1-4)GlcNAc
In short: as §1

[32] = biological target: GalNAc(b1-3)Gal
In short: as §1

[33] = biological target: GalNAc(b1-3)Gal(a1-4)Gal(b1-4)GlcNAc
In short: as §1

[34] = biological target: GalNAc(b1-3)Gal(a1-4)Gal(b1-4)GlcNAc(b1-3)Gal(b1-4)Glc
In short: as §1

[35] = biological target: GalNAc(b1-3)Gal(a1-6)Gal(b1-4)Glc
In short: as §1

[36] = biological target: GalNAc(b1-3)GalNAc
In short: as §1

[37] = biological target: GalNAc(b1-4)Gal(b1-4)Glc
In short: as §1

[38] = biological target: GalNAc(b1-4)GlcNAc
In short: as §1

[39] = biological target: GalNAc(b1-4)GlcNAc(b1-2)Man(a1-3)[GalNAc(b1-4)GlcNAc(b1-2)Man(a1-6)]Man(b1-4)GlcNAc(b1-4)GlcNAc
In short: as §1

[40] = biological target: GalNAc(b1-4)GlcNAc6S
In short: as §1

[41] = biological target: GalNAc(b1-6)GalNAc
In short: as §1

[42] = biological target: GalNAc3S(b1-4)GlcNAc
In short: as §1

[43] = biological target: GalNAc3S(b1-4)GlcNAc3S
In short: as §1

[44] = biological target: GalNAc4S6S(b1-4)GlcNAc
In short: as §1

[45] = biological target: GalNAc6S(b1-4)GlcNAc
In short: as §1

Measured: glycan array binding signal (z-score)

B1: SalT (Orysata sativa) (protein)
chain: MTLVKIGLWGGNGGSAQDISVPPKKLLGVTIYSSDAIRSIAFNYIGVDGQEYAIGPWGGGEGTSTEIKLGSSEHIKEISGTHGPVYDLADIVTYLKIVTSANNTYEAGVPNGKEFSIPLQDSGHVVGFFGRSGTLIDAIGIYVHPILEQKLISEEDLNSAVDHHHHHH
-0.3: [15] | [28]
-0.31: [2] | [16] | [21] | [23]
-0.141: [39]
-0.305: [14] | [32] | [37] | [38]
-0.307: [1] | [3] | [27] | [31] | [34] | [40] | [44]
-0.312: [19]
-0.303: [26]
-0.306: [25] | [33] | [42]
-0.309: [9] | [10] | [11] | [12] | [17] | [29] | [35] | [36]
-0.308: all other assays above
